# Reference: PubChem BioAssay AID1347165 (National Center for Advancing Translational Sciences (NCATS), 2019)
# The campaign covered roughly 220,000 compounds. About 5,700 (2.6%) were called active. The inconclusive results got no clear call from the source; some entries with a clear call stand among them for comparison. The call rests on the fitted dose curve; in most records, active means well fitted inhibition curve with a large enough effect; inconclusive means small, poorly fitted or top-dose-only effect; inactive means no such curve, though single readings can be large or run the other way. Potencies beside an inconclusive call are fits to weak or partial responses and may not hold up.
# Molecular target: Lysine-specific demethylase 5B (Homo sapiens) (UniProt Q9UGL1)
# Test: Primary screen for KDM5B Histone Demethylases FDH-coupled qHTS; further: nearly all actives have a fitted effect of over 70% in size; on activity change, negative = inhibition: 0% is about no effect
# Conditions: FDH-coupled NADH fluorescence (FDH is formaldehyde dehydrogenase); activity change, negative = inhibition: at 57.7 µM (top of the series) unless noted
# Summary of the method: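 Compound dilutions met 200 nM (final) KDM5BΔAP for 10 min at room temperature before substrate addition. The substrate mix held 12.5 µM H3K4me3 with cofactors 25 µM α-ketoglutarate and 50 µM Fe²⁺. NADH signal gain over 30 min defined activity.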
# Potency means the concentration at half of the fitted maximal effect; tags describe the fitted curve by direction and shape.
# UniProt Q9UGL1, sequence (Q9UGL1 whole entry, looked up): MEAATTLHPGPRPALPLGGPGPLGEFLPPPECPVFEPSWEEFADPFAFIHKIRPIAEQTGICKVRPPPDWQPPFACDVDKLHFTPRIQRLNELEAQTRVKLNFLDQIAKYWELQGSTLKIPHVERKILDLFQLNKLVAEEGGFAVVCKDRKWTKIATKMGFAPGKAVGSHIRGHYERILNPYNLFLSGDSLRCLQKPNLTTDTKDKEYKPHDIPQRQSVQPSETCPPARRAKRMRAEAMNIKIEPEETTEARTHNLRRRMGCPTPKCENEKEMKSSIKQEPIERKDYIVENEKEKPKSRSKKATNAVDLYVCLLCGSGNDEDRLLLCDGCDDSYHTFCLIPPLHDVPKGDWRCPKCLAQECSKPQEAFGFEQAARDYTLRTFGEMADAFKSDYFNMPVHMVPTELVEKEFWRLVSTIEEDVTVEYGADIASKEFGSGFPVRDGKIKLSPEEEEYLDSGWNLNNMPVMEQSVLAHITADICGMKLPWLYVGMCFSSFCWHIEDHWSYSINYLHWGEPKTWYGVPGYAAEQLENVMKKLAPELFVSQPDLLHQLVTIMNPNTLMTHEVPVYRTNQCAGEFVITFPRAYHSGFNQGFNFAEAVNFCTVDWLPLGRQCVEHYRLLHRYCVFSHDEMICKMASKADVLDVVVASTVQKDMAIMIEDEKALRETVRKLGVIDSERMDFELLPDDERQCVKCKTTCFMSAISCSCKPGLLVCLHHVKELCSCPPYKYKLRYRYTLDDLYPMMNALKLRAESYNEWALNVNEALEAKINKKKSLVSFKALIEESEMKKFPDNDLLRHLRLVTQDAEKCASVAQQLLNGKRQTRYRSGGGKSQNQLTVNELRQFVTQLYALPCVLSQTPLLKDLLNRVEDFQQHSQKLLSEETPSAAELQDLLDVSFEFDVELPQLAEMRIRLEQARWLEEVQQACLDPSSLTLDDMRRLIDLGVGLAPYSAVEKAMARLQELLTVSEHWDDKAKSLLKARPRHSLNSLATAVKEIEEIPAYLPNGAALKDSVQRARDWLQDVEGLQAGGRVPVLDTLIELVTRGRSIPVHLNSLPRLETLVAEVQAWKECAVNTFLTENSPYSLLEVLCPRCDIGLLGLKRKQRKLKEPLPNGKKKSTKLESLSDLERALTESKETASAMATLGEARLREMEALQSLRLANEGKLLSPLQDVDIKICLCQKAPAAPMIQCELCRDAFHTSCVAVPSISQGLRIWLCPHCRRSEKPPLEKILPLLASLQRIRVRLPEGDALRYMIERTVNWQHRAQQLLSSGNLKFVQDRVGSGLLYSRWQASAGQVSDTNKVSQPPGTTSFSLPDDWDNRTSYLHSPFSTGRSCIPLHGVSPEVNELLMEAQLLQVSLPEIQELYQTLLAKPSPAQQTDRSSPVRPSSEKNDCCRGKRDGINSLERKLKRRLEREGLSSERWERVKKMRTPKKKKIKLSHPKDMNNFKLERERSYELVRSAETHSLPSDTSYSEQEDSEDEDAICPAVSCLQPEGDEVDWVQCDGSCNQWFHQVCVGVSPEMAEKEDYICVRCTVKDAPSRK
Compound,Potency,"activity change, negative = inhibition"
COc1ccc2c(COC(=O)CCCN=C3NS(=O)(=O)c4ccccc43)cc(=O)oc2c1,"inconclusive: 8.91 µM [inhibitor, partial curve, poor fit]",
COc1cc(NS(=O)(=O)c2ccc(C)cc2C)cc2sc(NC(=O)c3ccccc3)nc12,"inconclusive: 28.2 µM [inhibitor, partial curve, poor fit]",
O=C(Nc1cccc(C(F)(F)F)c1)c1nc2c(o1)CCN(Cc1cnc[nH]1)CC2,,inactive: 4.79% [at 86.2 µM]
CCC(O)C(=O)N1CCc2onc(-c3ccc(-c4ccccc4)cc3)c2C1 (centres undefined),,inactive: 360%
Cc1ccc(C(=O)N2CCC(N3CCCCCC3=O)CC2)cc1,active: 35.5 µM,
O=S(=O)(c1ccccc1)c1nc(-c2ccc(F)cc2)oc1N1CCOCC1,"inconclusive: 50.1 µM [inhibitor, single point]",
Cc1ccnn1CCC(=O)N1CCOC(Cc2ccc(F)cc2)C1 (centres undefined),"inconclusive: 4.47 µM [inhibitor, single point]",
O=C(COc1ccc(F)cc1)NCc1nnc2ccc(-c3ccccc3)nn12,"inconclusive: 28.2 µM [inhibitor, single point]",
O=C(NC1CCCC1)C1(CCO)CC12CCOCC2 (centres undefined),,inactive: -5.58%
COc1ccccc1-c1noc(CSc2nc(C3CC3)n(-c3ccccc3)n2)n1,,inactive: 6.84%
Cc1c(Cl)cccc1NC(=O)C(C)N1CCC(C(=O)NCc2ccccc2)CC1 (centres undefined),,inactive: -10.9%
Cc1ccc([S+](=O)([O-])N2CCCN(c3nc4ncccc4o3)CC2)cc1,,inactive: -18.7%
CN(Cc1ccco1)C(=O)c1cc2cc(Br)ccc2[nH]1,"inconclusive: 39.8 µM [inhibitor, single point]",
COc1cccc(N2CCN(C(=O)CCn3ccn4nc5c(c4c3=O)CCCC5)CC2)c1,,inactive: -16%
Cn1cc(CN2CCc3ccccc32)ccc1=O,active: 10 µM,
CN(C)[C@@H]1CN(C(=O)c2cccc(C(F)(F)F)c2)C[C@H]1CO,,inactive: 3.99%
CC1=C(C(=O)NCc2ccccc2C)C2(CCN(S(=O)(=O)c3cccs3)CC2)OC1=O,,inactive: -17.2%
Cc1ccc(NC(=O)c2ncn(-c3ccccc3)n2)c(Cl)c1,"inconclusive: 2.82 µM [inhibitor, partial curve, poor fit]",
Cc1cccc(-c2cc(C(=O)NCC3CCCO3)c3ccccc3n2)c1 (centres undefined),"inconclusive: 39.8 µM [inhibitor, single point]",
O=C1NCCCc2[nH]c(-c3csc(-c4cnccn4)n3)nc21,"inconclusive: 25.1 µM [inhibitor, single point]",
Cc1ccc(NC(=O)N[C@@H]2C=C(C(=O)NCCC(N)=O)C[C@@H](O)[C@@H]2O)cc1,"inconclusive: 28.2 µM [inhibitor, partial curve, poor fit]",
Cc1csc2nc(-c3cccc(NC(=O)c4cccc(F)c4)c3)cn12,"inconclusive: 22.4 µM [inhibitor, single point]",
C[C@]1(CO)[C@H]2Cc3sc(NC(=O)c4ccc(F)cc4)nc3[C@@H](CC(=O)N3CCCCC3)[C@]2(C)CC[C@H]1O,"inconclusive: 28.2 µM [inhibitor, single point]",

Compound,Potency,"activity change, negative = inhibition"
Clc1cccc(Nc2cc3c(cn2)CN(Cc2cccnc2)CCN3)c1,"inconclusive: 31.6 µM [inhibitor, partial curve, poor fit]",
CCCCN(C)CCNC(=O)Cn1ncc2c3ccccc3n(CCC)c2c1=O,"inconclusive: 31.6 µM [inhibitor, partial curve, poor fit]",
Cc1cn2nc(C(=O)N3CCC(NC(=O)c4ccc[nH]4)CC3)cc2c(=O)[nH]1,"inconclusive: 31.6 µM [inhibitor, partial curve, poor fit]",
CCCN(C)c1ccc(/C=N/NC(=S)Nc2cccc(SC)c2)cc1,,inactive: 11.1%
Cc1cc(C(=O)N/N=C/c2ccncc2)cs1,,inactive: 16.8%
CCCCN(C)C(=O)c1c(C)sc2ccn(CCC)c(=O)c12,"inconclusive: 28.2 µM [inhibitor, partial curve, poor fit]",
CC(C)(C)c1ccc(-c2cc(C[C@H]3CNCC[C@H]3CC(=O)O)no2)cc1,"inconclusive: 35.5 µM [inhibitor, partial curve, poor fit]",
CC(C)n1nc(OC(C)(C)C(=O)Nc2ccccc2)c2cc(CN3CCOCC3)ccc21,"inconclusive: 35.5 µM [inhibitor, partial curve]",
O=C(CCc1ccccc1)N1CCCN(c2cc(-c3ccccc3)[nH]n2)CC1,"inconclusive: 15.8 µM [inhibitor, partial curve, poor fit]",
COc1ccc2oc(=O)c(-c3csc(Nc4cc(Cl)ccc4OC)n3)cc2c1,,inactive: -4.65%
Cc1cccc(Cn2c(CNS(=O)(=O)c3ccc(Cl)s3)nc3cccnc32)c1,,inactive: -15.4%
CC(C)Oc1ccc(CNC(=O)Cc2ccc(NC(=O)N3CCSc4ncccc43)cc2)cc1,"inconclusive: 35.5 µM [inhibitor, single point]",
O=C(c1cc2cc(F)ccc2[nH]1)N1CCc2ccccc2C1,"inconclusive: 39.8 µM [inhibitor, partial curve, poor fit]",
Cc1cc(=O)oc2cc(OC(=O)[C@H](C)NC(=O)OC(C)(C)C)c(Cl)cc12,,inactive: -30.9%
CN(C)[C@H]1CCCCN(C(=O)c2cnc3ccccn3c2=O)C1,active: 31.6 µM,
Cc1ccc(Cl)cc1NC(=O)NC1COc2ccccc2C1 (centres undefined),"inconclusive: 12.6 µM [inhibitor, partial curve, poor fit]",
CC(C)C[C@@H](NC(=O)C1=C[C@@H](NS(=O)(=O)c2cccc(C(F)(F)F)c2)[C@@H](O)[C@H](O)C1)C(N)=O,"inconclusive: 39.8 µM [inhibitor, single point]",
CCCNC(=O)CCc1ccnc(N2CCOCC2)c1,active: 28.2 µM,
c1ccc(-c2ccc3ncc(Nc4ccccn4)n3n2)cc1,"inconclusive: 89.1 µM [inhibitor, partial curve, poor fit]",
Cc1ccc(-c2cn3c(n2)CO[C@@H](CNC(=O)c2ccccc2)C3)cc1,active: 31.6 µM,
COc1ccc2c(Sc3ccccc3)c(C(=O)NCCN(C)C)[nH]c2c1,"inconclusive: 17.8 µM [inhibitor, partial curve, poor fit]",
CC(=O)Nc1cccc(-c2cc(-c3c(Cl)cccc3Cl)no2)c1,"inconclusive: 39.8 µM [inhibitor, single point]",
Cc1ccc2c(c1)CCCN2C(=O)c1cc(C)nc2ccccc12,,inactive: 11.2%

Compound,Potency,"activity change, negative = inhibition"
FC(F)Oc1ccc(/C=N/NC(=S)NCc2ccccc2)cc1,,inactive: -25.9%
CCCNC(=O)CN1CCN(Cc2ncc(-c3ccccc3)o2)CC1,,inactive: -3.2%
COCCNC(=O)Cn1nc(C)c2sc(-c3ccccc3)nc2c1=O,active: 28.2 µM,
Cc1noc(-c2ccn3c(CNC(=O)c4cc(F)ccc4F)nnc3c2)n1,"inconclusive: 3.16 µM [inhibitor, partial curve, poor fit]",
CN(C)C[C@@H]1CN(c2ccncn2)C[C@H]1NC(=O)c1cccn1C,,inactive: -28.9%
COc1ccc(-c2noc([C@@H]3CCCN3C(=O)c3ccc(F)cc3Cl)n2)cc1OC,"inconclusive: 31.6 µM [inhibitor, single point]",
CSC1=N/C(=C/c2cccnc2)C(=O)N1Cc1ccc(Cl)cc1,"inconclusive: 35.5 µM [inhibitor, partial curve, poor fit]",
Nc1ccc(C(c2ccc(N)cc2)c2ccc(O)cc2)cc1,"inconclusive: 31.6 µM [inhibitor, single point]",
CS(=O)(=O)c1ncc(N(Cc2ccccc2)Cc2ccco2)c(C(=O)Nc2cccc(C(F)(F)F)c2)n1,"inconclusive: 35.5 µM [inhibitor, single point]",
Cc1ccc2c(ccc3ccccc32)n1,"inconclusive: 35.5 µM [inhibitor, single point]",
O=C(c1cc2ccccc2[nH]1)N1CCCC(n2cc(-c3nc(-c4ccccc4)no3)nn2)C1 (centres undefined),active: 17.8 µM,
CC1CC(=O)Nc2cc(S(=O)(=O)NCCc3ccco3)ccc2S1 (centres undefined),,inactive: 7.39%
Cc1ccc(-c2nn3c(C)nnc3c3ccccc23)cc1S(=O)(=O)NCCO,"inconclusive: 15.8 µM [inhibitor, partial curve, poor fit]",
Cc1cccc(N(CC(=O)NC(C)c2ccccc2)S(=O)(=O)c2ccccc2)c1C (centres undefined),"inconclusive: 1.26 µM [inhibitor, full curve, poor fit]",
O=C(NCc1nc2ccccc2[nH]1)c1cc(-c2cccs2)nc2ccccc12,,inactive: 976%
COc1ccc2nc([C@H]3CCN(Cc4ccc5c(c4)OCO5)C3)[nH]c2c1,"inconclusive: 25.1 µM [inhibitor, partial curve, poor fit]",
O=C(Nc1ccc2oc(=O)ccc2c1)c1cccc2ccccc12,,inactive: -28.6%
CN(C)CCCNC(=O)c1cc2cc(F)ccc2[nH]1,"inconclusive: 20 µM [inhibitor, partial curve, poor fit]",
Cn1cccc1C(=O)N1CCC(Oc2ccccc2-c2nc(C3CCOCC3)no2)C1 (centres undefined),,inactive: -11.4%
CC(C)(C)CN1CCOC[C@H]1c1ncc(-c2ccc(C(F)(F)F)cc2)[nH]1,"inconclusive: 35.5 µM [inhibitor, single point]",
Cc1[nH]c2ccccc2c1C(=O)COC(=O)CCC(C)C,,inactive: 11.4%
Cc1ccc(-c2cn3cccc(C)c3n2)cc1NS(=O)(=O)c1ccccc1,"inconclusive: 25.1 µM [inhibitor, partial curve, poor fit]",
COc1cccc(CC(=O)N2C[C@@H](Oc3ccccc3)C[C@@H]2C(=O)N2CCOCC2)c1,,inactive: -10.7%
